Results from PubChem BioAssay AID1671194 (National Center for Advancing Translational Sciences (NCATS), 2021).
In all, about 140,000 compounds went through this assay and about 240 (0.17%) were called active. Inconclusive means that the source gave no clear call. Such entries were picked first, then a sample of the others. Calls follow the shape of the dose curve; as a rule, active = well fitted inhibition curve with a large enough effect; inconclusive = small, poorly fitted or top-dose-only effect; inactive = no such curve, though single readings can be large or run the other way. Potencies beside an inconclusive call are fits to weak or partial responses and may not hold up.

assay: Primary qHTS assay for inhibitors of alpha-synuclein gene (SNCA) expression; conditions: HEK-293 SNCA-luciferase knock-in, luminescence, 24 h; series mostly up to 57.2 µM; also: nearly all actives have a fitted effect of over 45% in size
Potency is read from the fitted curve at half-maximal effect; tags tell the direction and shape of the fitted curve.

SMILES | Potency
COc1ccc(-c2cc(N3CCCC(NC(=O)c4cc5ccccc5[nH]4)C3)n[nH]2)cc1 (stereo unspecified) | inactive
Cc1cc2nc(CO[C@H]3CN(Cc4ccc(S(C)(=O)=O)cc4)C[C@H]3F)[nH]c2cc1C | inactive
CCc1ccc(CN2CCC(Oc3ccc4ccccc4c3)(C(=O)O)CC2)nc1 | inconclusive: 28.2 µM [inhibitor, partial curve, poor fit]
CC(C)Cc1ccc(CN2CCC3(CC2)Cc2ccccc2CNC3=O)cc1 | inconclusive: 12.6 µM [inhibitor, partial curve, poor fit]
O=C(Nc1ccccc1-c1nc2ccccc2s1)c1cc(Cl)cc(Cl)c1 | inactive
COCc1nnc(C2CC3(CCN(C(=O)c4ccc(C)s4)CC3)CN2C)o1 (stereo unspecified) | inconclusive: 39.8 µM [inhibitor, single point]
CSc1cccc(NC(=O)c2cc3c(N4CCSCC4)nc(C)cn3n2)c1 | inactive
CCn1ncc(N2CCCC(CC(=O)NCc3ccccc3)C2)cc1=O (stereo unspecified) | inactive
O=C(c1ccccc1Cl)n1nc(-c2cccnc2)nc1NCc1ccc(F)cc1 | inconclusive: 39.8 µM [inhibitor, single point]
O=C(c1ccncc1)N1CCC(Cc2nc(C3CCOCC3)no2)CC1 | inconclusive: 3.16 µM [inhibitor, single point]
CC(C)(C)OC(=O)N1CCC(c2c(C(=O)NCCN3CCC(Cc4ccccc4)CC3)cnn2-c2ccccc2)CC1 | inconclusive: 31.6 µM [inhibitor, single point]
Nc1nc(Nc2ccc(S(N)(=O)=O)cc2)nn1C(=O)c1c(F)cccc1F | inconclusive: 4.82 µM [inhibitor, full curve]
Cc1ccncc1-c1c(C)nn2c1N(Cc1cccc(OC(F)(F)F)c1)CCC2 | inconclusive: 12.6 µM [inhibitor, full curve, poor fit]
Cc1noc2c(N(C)C)cc(-c3cccc(C(F)(F)F)c3)nc12 | inactive
COc1ccc(C2CC(=O)Nc3c2c(=O)[nH]c2nc4ccccc4n32)cc1OC (stereo unspecified) | inconclusive: 39.8 µM [inhibitor, single point]
COc1cccc(CN2CCN(c3nc4c(s3)c(C)nn4C)CC2=O)c1 | inconclusive: 3.16 µM [inhibitor, partial curve, poor fit]
O=C(NCC(F)F)c1nc2cccnc2n(C2CC2)c1=O | inactive
CCOC(=O)c1ccc(NC(=O)CC2C(=O)N(c3ccc(F)cc3)C(=O)N2Cc2ccc3c(c2)OCO3)cc1 (stereo unspecified) | inactive
CCOC(=O)c1ccc(NC(=O)Cn2cnc(S(=O)(=O)N3CCCC3)c2)cc1 | inconclusive: 1.41 µM [inhibitor, partial curve, poor fit]
Cc1cc2nc3n(c(=O)c2n1CC(=O)NCCc1ccc(Cl)cc1)CCC3 | inconclusive: 0.708 µM [inhibitor, full curve, poor fit]
CNC(C)c1ccc(OC(F)(F)F)cc1 (stereo unspecified) | inactive

SMILES | Potency
CCOc1cc(=O)n2c(c1C(=O)Nc1ccc(C)cc1Cl)CCCC2 | inconclusive: 8.91 µM [inhibitor, full curve, poor fit]
CN1CCC(C(=O)N2CCCC3(Cc4ccccc4CN3C(=O)c3ccccc3)C2)CC1 (stereo unspecified) | inconclusive: 25.1 µM [inhibitor, partial curve, poor fit]
CCSc1ncc(Cl)c(C(=O)Nc2c(C(=O)Nc3ccc(Cl)cc3)oc3ccccc23)n1 | inconclusive: 0.708 µM [inhibitor, full curve, poor fit]
Cc1noc(C)c1[S+](=O)([O-])N1CCC2(CC1)C(=O)NN=C2c1ccccn1 | inconclusive: 8.91 µM [inhibitor, single point]
O=C(Nc1cccc(Cl)c1)C1CCCN(Cc2cccc(-c3ccc(F)cc3F)c2)C1 (stereo unspecified) | inconclusive: 22.4 µM [inhibitor, single point]
Cc1cccc(OCC(=O)c2ccc3c(c2)N(CC(=O)N(C)Cc2ccccc2)C(=O)CO3)c1 | inconclusive: 39.8 µM [inhibitor, single point]
Cc1cccc(OCC(=O)N2CC(C(=O)NC3CCCCC3)C3(CCOCC3)C2)c1 (stereo unspecified) | inconclusive: 8.91 µM [inhibitor, partial curve]
CCOCCN1C(=O)COC[C@@H]1[C@H](O)c1ccc(NC(=O)c2ccccc2OC)cc1 | inactive
Cn1nccc1C(=O)N1CC[C@H]2C(=O)NCCCCCCN(Cc3ccncc3)[C@@H]2C1 | inconclusive: 20 µM [inhibitor, partial curve, poor fit]
COc1ccc(Cn2c(C(=O)O)c(CNC3CCCCCC3)c3ccc(OC)cc32)cc1 | inconclusive: 39.8 µM [inhibitor, single point]
CC(=O)N1CCC(Cc2noc(-c3ccccc3)n2)C1 (stereo unspecified) | inactive
O=C(NC1CCN(c2cc(-c3cccs3)[nH]n2)CC1)c1cccc(Cl)c1 | inactive
C#CCNC(=O)c1cc(-c2cccc(C(F)(F)F)c2)c2nncn2n1 | inconclusive: 20 µM [inhibitor, single point]
COc1ccccc1C(=O)NCCn1cc(SCc2ccccc2Cl)c2ccccc21 | inconclusive: 39.8 µM [inhibitor, single point]
CN(CC(=O)N1CCC(CCOc2ccccc2F)C1)S(=O)(=O)c1ccc2c(c1)oc(=O)n2C (stereo unspecified) | inconclusive: 3.55 µM [inhibitor, full curve]
Cc1noc(/C=C/c2ccco2)c1S(=O)(=O)N1CCC(C(=O)Nc2ccc(F)c(Cl)c2)CC1 | inconclusive: 2 µM [inhibitor, full curve, poor fit]
O=C(NCC1COc2ccccc2C1)c1nccnc1C(=O)N1CCCCC1 (stereo unspecified) | inconclusive: 1.78 µM [inhibitor, partial curve, poor fit]
Cc1ccccc1CNC(=O)C1CCN(C(=O)c2ncn3c2COC(c2ccccc2)C3)CC1 (stereo unspecified) | inactive
COC(=O)CNC(=O)c1nc(-c2ccsc2)c2cnccn12 | inactive
CCCCN1CCCc2cc(CN(CCCN3CCOCC3)C(=O)Nc3ccc(OCC)cc3)ccc21 | inconclusive: 39.8 µM [inhibitor, single point]
